Reference: PubChem BioAssay AID1508642 (National Center for Advancing Translational Sciences (NCATS), 2021)
Among all 43,000 compounds or so, about 200 (0.47%) were called active. Another 12% or so got no clear call; they are omitted. The call rests on the fitted dose curve; in most records, active means well fitted cell-killing curve with a large enough effect; inconclusive means small, poorly fitted or top-dose-only effect, or effect the other way; inactive means flat fitted curve, though single readings scatter. The list shows a part of the results.

Assay: Cell viability qHTS assay in S16 Pmp22-F2sN cells; further: nearly all actives have a fitted effect of over 65% in size
Conditions: S16 Pmp22-F2sN Schwann cells (luciferase reporters placed in the Pmp22 gene) viability, CellTiter-Glo, 24 h; series mostly up to 57.5 µM; activity change, negative = cytotoxicity: at the top concentration
How it was run: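 CellTiter-Glo counter-screen, qHTS, 1536-well. Cells: S16(c9) Pmp22-F2sN, 500-1,000/well in DMEM + 10% FBS. Cpd 23 nL pin transfer, 24 h, 37C/5% CO2. Read: luminescence, CCD imager.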
On the % scale 0 is the no-effect control and ±100 the full control effect.

Compound | activity change, negative = cytotoxicity
Cc1oc(C)c2c(=O)cc(-c3ccc4c(c3)OCO4)cc(OC(=O)c3ccccc3Cl)c12 | inactive: -8.33%
Cc1cccc(NS(=O)(=O)c2ccc(-n3cccn3)cc2)c1C | inactive: -1.77%
Cc1nn(C)c2c1c(C(F)(F)F)cc(=O)n2Cc1cccc(Br)c1 | inactive: 2.77%
CC(C)CNc1nc(Oc2ccc(OCC(N)=O)nn2)nc(N2CCOCC2)n1 | inactive: -0.983%
COc1ccccc1CNC(=O)c1ccc2nc(-c3ccccc3)c(-c3ccccc3)nc2c1 | inactive: -6.5%
CCOc1ccc(CNC(=O)c2ccc(NC(=O)N3CCCCc4ccccc43)cc2)cc1OC | inactive: -1.6%
CCn1cc(C(=O)NCc2ccc(C)cc2)c(=O)c2cc(S(=O)(=O)N3CCCCCC3)ccc21 | inactive: 24%
O=C(CCc1nc2cccnc2n1Cc1cccs1)Nc1cccc(Cl)c1 | inactive: -4.6%
CCOc1ccc(-n2c(-c3ccccc3)c(C)n3c4c(=O)n(C)c(=O)n(C)c4nc23)cc1 | inactive: 16.6%
Cn1cc(S(=O)(=O)N2CCCCCC2)cc1C(=O)NCc1ccccc1Cl | inactive: -13.1%
Cc1ccc(S(=O)(=O)N2CCOCC2)cc1C(=O)Nc1ccccc1C(=O)O | inactive: 11.3%
O=S(=O)(Nc1ccc2nc(-c3cccc(Cl)c3)oc2c1)c1ccccc1 | inactive: 7.28%
Cc1ccc2onc(CC(=O)N(C)c3ccccc3)c2c1 | inactive: -2.16%
Cc1cccc(N2CCN(C3(c4ccccc4)C(=O)c4ccccc4C3=O)CC2)c1C | inactive: -6.18%
O=S(=O)(Nc1nc2n(n1)C(c1ccc(F)cc1)C=C(c1ccccc1)N2)c1ccc(Cl)cc1 (stereo unspecified) | inactive: 4.41%
CN(C(=O)C(=O)Nc1ccc2nc3n(c(=O)c2c1)CCCCC3)c1cccc(C(F)(F)F)c1 | inactive: 7.53%
CC(C)Sc1ncc(Cl)c(C(=O)Nc2nnc(C(C)C)s2)n1 | inactive: 24.2%
CCc1ccc(NC(=O)Cn2c(=O)oc3cc(S(=O)(=O)N4CCCCCC4)ccc32)cc1 | inactive: -8.31%
Cc1onc(-c2ccc(F)cc2F)c1C(=O)Nc1cccc(C(F)(F)F)c1 | inactive: -0.762%
O=C(Nc1ccccc1)c1cccc(S(=O)(=O)Nc2cccc(F)c2)c1 | inactive: -4.07%
COc1cccc(-c2ccc3c(N)c(C(=O)NCc4ccc(Cl)cc4)sc3n2)c1 | inactive: -9.16%

Compound | activity change, negative = cytotoxicity
O=C(CC(c1cccs1)N1Cc2ccccc2C1=O)Nc1ccc(F)c(Cl)c1 (stereo unspecified) | inactive: 0.486%
CC(=O)Nc1cc(C(=O)NCc2ccc(C)cc2)ccc1Sc1ccc(C)cc1 | inactive: -11.9%
C=CCC(CC=C)(CNC(=O)C(=O)Nc1cccc(C(F)(F)F)c1)c1ccccc1 | inactive: -4.22%
Cc1ccc(Oc2c(C(F)(F)F)oc3cc(OCC(=O)NC4CCCCC4)ccc3c2=O)cc1 | inactive: 23.8%
CCCN1C(=O)C(O)(CC(=O)c2ccc(CC)cc2)c2ccccc21 (stereo unspecified) | inactive: -24.6%
CCc1cccc(C)c1NC(=O)CSc1nc(C)cc(C)c1C(=O)Nc1ccccc1 | inactive: -17.5%
COc1ccc(-c2noc(-c3cccnc3NCc3ccco3)n2)cc1 | inactive: 19.9%
CCC1CN(C(=O)N2CCC(C(=O)NCCN(CC)CC)CC2)c2ccccc2O1 (stereo unspecified) | inactive: -11.1%
CCOC(=O)CSc1nc2ccccc2c(=O)n1CCc1ccc(OC)c(OC)c1 | inactive: -22.3%
Cc1c(Cl)cccc1NC(=O)C(C)n1c(=O)cc(-c2ccccc2)c2c(C)nn(C)c21 (stereo unspecified) | inactive: -1.75%
COc1ccccc1CNC(=O)CSc1ncc2c(n1)-c1ccc(Cl)cc1N(Cc1ccccc1)S2(=O)=O | inactive: -1.52%
COc1ccc(NC(=O)C(c2ccc(C)cc2)N(C)C(=O)Cc2cccs2)cc1 (stereo unspecified) | inactive: -8.43%
COc1ccc(-c2cccc(NS(=O)(=O)c3cc(C)c(OC)c(C)c3C)c2)nn1 | inactive: -16.8%
CCOc1ccccc1C(=O)N1CC(=O)Nc2ccc(Cl)cc2C1c1ccccc1 (stereo unspecified) | inactive: -9.27%
O=C(Cn1c(=O)c2cc(Cl)ccc2n2nncc12)Nc1ccccc1 | inactive: 1.22%
CCc1ccc(NC(=O)c2sc3nc(C)c(Cl)c(C)c3c2N)cc1 | inactive: -2.72%
O=C(Cn1c(-c2cccs2)cc2cc(Cl)ccc21)N1CCN(c2ccccc2)CC1 | inactive: 0.0072%
Cc1ccc(C)c(NC(=O)CCn2nc(C)c3c(C)n(-c4ccccc4)nc3c2=O)c1 | inactive: -4.81%
Cc1nc(-c2ccc(Cl)cc2)sc1CCNC(=O)c1ccc(C(F)(F)F)cc1 | inactive: -0.0458%
COc1ccccc1C(=O)OCc1cc(=O)n2nc(C3CC3)sc2n1 | inactive: 14.6%
CCC1CCc2nc3sc(C(=O)Nc4ccc(F)c(Cl)c4)c(N)c3cc2C1 (stereo unspecified) | inactive: 3.5%

Compound | activity change, negative = cytotoxicity
Cc1ccc(C)c(NC(=O)c2ccc3c(c2)CCN3S(C)(=O)=O)c1 | inactive: 7.23%
Cc1cccc(-c2nn3c(=O)cc(CN4CCN(S(=O)(=O)c5ccc(Cl)cc5)CC4)nc3s2)c1 | inactive: -13.8%
CCc1cc2c(cc3c(=O)n(CC(=O)NCCc4ccc(OC)c(OC)c4)ncn32)s1 | inactive: -4.06%
COC(=O)c1cc(S(=O)(=O)NCC2CCN(Cc3cccc(F)c3)CC2)c[nH]1 | inactive: -10.8%
Cc1ccccc1Cn1c(=O)n(CCc2ccccc2)c(=O)c2c(C)c(C)sc21 | inactive: 0.106%
COc1cccc(OCCSc2nc3ccccc3n2CC(=O)N2CCCCC2)c1 | inactive: 2.25%
COc1ccc(-c2nc(CN3CCC(C(=O)NCCCOC(C)C)CC3)c(C)o2)cc1OC | inactive: 15.7%
COc1cccc(-n2cc(C(=O)NCc3ccccc3OC)c3ccccc3c2=O)c1 | inactive: 14.5%
COc1ccc(NC(=O)Cn2c(=O)n(Cc3nc(C)no3)c(=O)c3cc4c(cc32)OCO4)cc1OC | inactive: 2.33%
Cc1cccc(C)c1-n1ncc(C(=O)NCCN2CCOCC2)c1C1CCN(C(=O)OC(C)(C)C)CC1 | inactive: -2.46%
O=C(CCn1ccc2cc(S(=O)(=O)N3CCCC3)ccc21)NCc1cccc(F)c1 | inactive: -24.6%
COC(=O)CSc1nc(-c2ccc(F)cc2)cc(C(F)(F)F)n1 | inactive: -12.5%
COc1cc(OC)c(C2Nc3ccccc3-c3nnc(SCc4ccccc4)nc3O2)cc1OC (stereo unspecified) | inactive: 6.62%
COc1ccc(OC)c(C2N=C(N)Nc3nc4ccccc4n32)c1 (stereo unspecified) | inactive: 8.03%
O=C(NCc1ccc(Cl)cc1)C1CCCN(C(=O)c2cnn(-c3ccc(F)cc3)c2-n2cccc2)C1 (stereo unspecified) | inactive: -21.1%
Cc1ccc(C)c(Nc2cc(C(=O)NC3CCCCC3)c3ccccc3n2)c1 | inactive: 13.9%
O=C(CCn1c(=O)c2cccn2c2ccc(F)cc21)NCCc1ccccc1 | inactive: -3.57%
Cc1ccc(N(C(=O)COc2ccccc2C)S(=O)(=O)c2ccc(Cl)cc2)cc1 | inactive: -7.71%
Cc1cc(C)c2oc(C(=O)Nc3sc4c(c3C(=O)NCc3ccco3)CCCC4)cc(=O)c2c1 | inactive: 4.86%
